In the supplement of paper PMC9151546:
± gives the standard deviation of the averaged measurements. Many values rest on one well or one pass, so single values are uncertain.

Experiments:
CHO-K1 [1] = assay: relative survival (nuclei to bead ratio vs DMSO control) (% of vehicle control); higher = more surviving cells
Protocol: (§1)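 Flow-cytometric in vitro micronucleus assay (Litron MicroFlow) in CHO-K1 cells in 96-well plates, 19 concentrations (4.5-200 µM, n=1 per concentration). Without S9, cells were exposed for 24 h and sampled at 48 h. With Aroclor 1254-induced rat liver S9, cells were exposed for 3-4 h and sampled at 27-28 h. Read-outs are %MN and %hypodiploid nuclei relative to nucleated events, and relative survival as the nuclei-to-bead ratio versus the 1% DMSO vehicle control (x100).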

CHO-K1 [2] = assay: micronucleus frequency (% of nucleated events); higher = more micronuclei (genotoxic)
CHO-K1 [3] = assay: hypodiploid nuclei frequency (% of nucleated events); higher = more hypodiploid events (aneugenic)
Protocol: as §1
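Wherever hypodiploid nuclei frequency (% of nucleated events) is given: hypodiploid nuclei gated on a flow cytometer with 488 nm excitation after SYTOX Green staining, cultures at 37 °C, positive controls vinblastine without S9 and cyclophosphamide with S9.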
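Wherever micronucleus frequency (% of nucleated events) is given: cells lysed with nuclei stained by SYTOX Green, then micronucleus-gated events counted against nucleated events by flow cytometry with 488 nm excitation.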
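Wherever relative survival (nuclei to bead ratio vs DMSO control) is given: Lysed-cell nuclei stained with SYTOX Green and counted against counting beads by flow cytometry at 488 nm excitation, with vinblastine (no S9) and cyclophosphamide (plus S9) as positive controls.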

CCSC(=O)N1CCCCCC1 [Molinate]
Conditions | hypodiploid nuclei frequency, CHO-K1 [3] [%] | micronucleus frequency, CHO-K1 [2] [%] | relative survival, CHO-K1 [1]
concentration: 4.5 (µM), S9 metabolic activation: with S9, exposure time: 3-4 hours | 0.29 ± 0.18 | 1.15 ± 0.071 | 81.3 ± 10
concentration: 4.5 (µM), S9 metabolic activation: without S9, exposure time: 24 hours | 0.37 ± 0.014 | 1.03 ± 0.13 | 101 ± 15
concentration: 5.63 (µM), S9 metabolic activation: with S9, exposure time: 3-4 hours | 0.2 ± 0.028 | 0.89 ± 0.071 | 83.3 ± 2.1
concentration: 5.63 (µM), S9 metabolic activation: without S9, exposure time: 24 hours | 0.41 ± 0.16 | 1.14 ± 0.2 | 97.8 ± 21
concentration: 7.04 (µM), S9 metabolic activation: with S9, exposure time: 3-4 hours | 0.14 ± 0.057 | 0.69 ± 0.3 | 83.5 ± 5.1
concentration: 7.04 (µM), S9 metabolic activation: without S9, exposure time: 24 hours | 0.43 ± 0.071 | 1.03 ± 0.071 | 85.3 ± 12
concentration: 8.8 (µM), S9 metabolic activation: with S9, exposure time: 3-4 hours | 0.18 ± 0.028 | 0.95 ± 0.014 | 87.9 ± 7
concentration: 8.8 (µM), S9 metabolic activation: without S9, exposure time: 24 hours | 0.38 ± 0.2 | 1.1 ± 0.4 | 103.9 ± 0.61
concentration: 11 (µM), S9 metabolic activation: with S9, exposure time: 3-4 hours | 0.14 ± 0.028 | 1.06 ± 0.085 | 95.43 ± 0.45
concentration: 11 (µM), S9 metabolic activation: without S9, exposure time: 24 hours | 0.32 ± 0.17 | 1.18 ± 0.26 | 91.3 ± 17
concentration: 13.7 (µM), S9 metabolic activation: with S9, exposure time: 3-4 hours | 0.14 ± 0.085 | 1.06 ± 0.17 | 96.3 ± 25
concentration: 13.7 (µM), S9 metabolic activation: without S9, exposure time: 24 hours | 0.42 ± 0.057 | 1.1 ± 0.028 | 93.2 ± 14
concentration: 17.2 (µM), S9 metabolic activation: with S9, exposure time: 3-4 hours | 0.11 ± 0.042 | 1.26 ± 0.2 | 91.3 ± 2.5
concentration: 17.2 (µM), S9 metabolic activation: without S9, exposure time: 24 hours | 0.42 ± 0.057 | 1.37 ± 0.099 | 114.12 ± 0.035
concentration: 21.5 (µM), S9 metabolic activation: with S9, exposure time: 3-4 hours | 0.16 ± 0.085 | 1.08 ± 0.54 | 82.7 ± 13
concentration: 21.5 (µM), S9 metabolic activation: without S9, exposure time: 24 hours | 0.37 ± 0.042 | 1.06 ± 0.11 | 105 ± 3.7
concentration: 26.8 (µM), S9 metabolic activation: with S9, exposure time: 3-4 hours | 0.28 ± 0.057 | 0.995 ± 0.49 | 66.6 ± 28
concentration: 26.8 (µM), S9 metabolic activation: without S9, exposure time: 24 hours | 0.54 ± 0.2 | 1.12 ± 0.14 | 91.6 ± 5.1
concentration: 33.6 (µM), S9 metabolic activation: with S9, exposure time: 3-4 hours | 0.25 ± 0.071 | 0.96 ± 0.42 | 71.8 ± 31
concentration: 33.6 (µM), S9 metabolic activation: without S9, exposure time: 24 hours | 0.61 ± 0.18 | 1.1 ± 0.51 | 83.3 ± 18
concentration: 41.9 (µM), S9 metabolic activation: with S9, exposure time: 3-4 hours | 0.145 ± 0.16 | 1.1 ± 0.25 | 66.7 ± 24
concentration: 41.9 (µM), S9 metabolic activation: without S9, exposure time: 24 hours | 0.55 ± 0.042 | 1.4 ± 0.17 | 73.6 ± 4.4
concentration: 52.4 (µM), S9 metabolic activation: with S9, exposure time: 3-4 hours | 0.175 ± 0.0071 | 1 ± 0.88 | 69.4 ± 21
concentration: 52.4 (µM), S9 metabolic activation: without S9, exposure time: 24 hours | 0.56 ± 0.26 | 1.15 ± 0.13 | 84.6 ± 4.3
concentration: 65.5 (µM), S9 metabolic activation: with S9, exposure time: 3-4 hours | 0.3 | 1.09 ± 0.32 | 74.2 ± 13
concentration: 65.5 (µM), S9 metabolic activation: without S9, exposure time: 24 hours | 0.55 ± 0.042 | 1.66 ± 0.37 | 76.2 ± 1.7
concentration: 81.9 (µM), S9 metabolic activation: with S9, exposure time: 3-4 hours | 0.18 ± 0.028 | 1.04 ± 0.23 | 74.7 ± 7.4
concentration: 81.9 (µM), S9 metabolic activation: without S9, exposure time: 24 hours | 0.76 ± 0.31 | 1.29 ± 0.33 | 81.05 ± 0.28
concentration: 102 (µM), S9 metabolic activation: with S9, exposure time: 3-4 hours | 0.18 ± 0.057 | 1.49 ± 0.61 | 67.7 ± 9.8
concentration: 102 (µM), S9 metabolic activation: without S9, exposure time: 24 hours | 0.97 ± 0.071 | 1.39 ± 0.52 | 84.5 ± 8.5
concentration: 128 (µM), S9 metabolic activation: with S9, exposure time: 3-4 hours | 0.225 ± 0.078 | 1.14 ± 0.52 | 73.3 ± 28
concentration: 128 (µM), S9 metabolic activation: without S9, exposure time: 24 hours | 0.59 ± 0.042 | 1.32 | 97.2 ± 20
concentration: 160 (µM), S9 metabolic activation: with S9, exposure time: 3-4 hours | 0.35 ± 0.042 | 1.54 ± 0.84 | 74.3 ± 24
concentration: 160 (µM), S9 metabolic activation: without S9, exposure time: 24 hours | 0.77 ± 0.18 | 1.7 ± 0.11 | 109 ± 3.5
concentration: 200 (µM), S9 metabolic activation: with S9, exposure time: 3-4 hours | 0.295 ± 0.0071 | 1.57 ± 0.8 | 71.3 ± 12
concentration: 200 (µM), S9 metabolic activation: without S9, exposure time: 24 hours | 1.07 ± 0.014 | 1.52 ± 0.28 | 85.8 ± 7.3
